Assay results taken from the RNAGym collection of RNA variant scans (doi:10.1073/pnas.2313332121).
Variants at the background level are over-represented here.

B1: TPR 5TU (parent)
chain: GGAUCUUCUCGAUCUAACAAAAAAGACAAAUCUGCCACAAAGCUUGAGAGCAUCUUCGGAUGCAGAGGCGGCAGCCUUCGGUGGCGCGAUAGCGCCAACGUUCUCAACUAUGACACGCAAAACGCGUGCUCCGUUGAAUGGAGUUUAUCAUG

Variants of: B1
Test: polymerase ribozyme fitness, log enrichment relative to wild type (log ratio); higher = more active; in vitro selection for triplet polymerase activity
In short: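 Genotype fitness is the logarithm of its enrichment divided by wild-type enrichment, using inverse-variance-weighted averages of replicates. That logarithm is base 2. Enrichment was measured by Illumina sequencing of input and output libraries from one triplicate in vitro selection round, with frozen incubation at −7 °C, on PCR-built, transcribed mutant libraries of each subunit of a heterodimeric triplet polymerase ribozyme, retaining genotypes with ≥10 input reads and ≥1 read per output.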

Point of comparison: GGAUCUUCUCGAUCUAACAAAAAAUACAAAUCUGCCACAAAGCUUGAGAGCGUCUACGGGUGCAGAGGCGGCAGCCUUCGGUGGCGCGAUAGCGCCAACGUUCUCAACUAUGACACGCAAAACGCGUGCUCCCUUGAAUGGAGUUUAUCAUG [G25U A52G U56A A60G G133C], “polymerase ribozyme fitness (log ratio)” value -4.06. Against it:
- GGAUCUUCUCGAUCUAACAAAAAAUACAAAUCUGCCACCAAGCUUGUGAGCAUCUUCGGAUGCAGAGGCGGCAAACUUCGGUGGCGCGAUAGCGCCAACGUUCUCAACUAUGACACGCAAAACGCGUGCUCCGUUGAAUGGAGUUUAUCAUG [G25U A39C A47U G74A C75A] — lower, ≤ -4.2
- GGAUCUUCUCGAUCUAACAAAAAAUACAAAUCUGCCACAUAGCUUGGGAGCAUCUUCGGAUGCAGAGGCGGCAGCCUUAGGUGGCGCGAUAGCGCCAACGUUCUCAACUAUGACACGCUAAACGCGUGCUCCGUUGAAUGGAGGUUAUCAUG [G25U A40U A47G C79A A119U U144G] — lower, ≤ -4.2
- GGAUCUUCUCGAUCUAACAAAAAAUACAAAUCUGCCACAACGCUUGAGAGCAUCUUCGGAAGCAGAGGCGGCAGCCGUCGGUGGCGAGAUAGCGCCAACGUUCUCAACUAUGACACGCAAAACGAGUGCUCCGUUGAAUGGAGUUUAUCAUG [G25U A41C U61A U77G C87A C125A] — lower, ≤ -4.2
- GGAUCUUCUCGAUCUAACAAAAAAUACAAAUCUGCCACAAGGCUUGAGAGCAUCUUCGGAUGCAGAGGCGGCAGCCUUCGGUGGCGCGAUAGGGCCAACGUUCUCAACUAUGUCACGCAAAACGCGUGCUCCGUUGAAUGGAGUUUAUCUUG [G25U A41G C93G A113U A150U] — lower, ≤ -4.2
- GGAUCUUCUCGAUCUAACAAAAAAUACAAAUCUGCCACAAUGCUUGAGAGCAUCUUCGGAUGCAGAGGCGGCAGCCUUCGGUGGCGGGAUAGCGCCAACGUUCUCAACUAUGACACGCAAAACGCGUGCUCCGUUGAAUGGAGUUUAUCAUG [G25U A41U C87G] — lower, ≤ -4.2
- GGAUCUUCUCGAUCUAACAAAAAAUACAAAUCUGCCACAAUGCUUGAGAGCAUCUUCGGAUGCAGAGGCGGCAGCCUUCGGUGGCGCGAUAGCUCCAACGUUCUCAACUAUGACACGCAAAACGCGUGCUCCGUUGACCAGCGUUUAUCAUG [G25U A41U G94U A138C U139C G140A A142C] — lower, ≤ -4.2
- GGAUCUUCUCGAUCUAACAAAAAAUACAAAUCUGCCACAAAGCUUGAGCGCAUCUUCGGAUGCAGAGGCGGCAGCCUUCGGUGGCGCGAUAGCGCCAACGUUCUCAACUAUGACACGCAAAACGCGUGCUCCGUUGAAUGGAGUUUAUCAUG [G25U A49C] — lower, ≤ -4.2
- GGAUCUUCUCGAUCUAACAAAAAAUACAAAUCUGCCACAAAGCUUGAGCGUAACUUCGGAUGCAGAGGCGGCAGCCUUCGGUGGGGCGAUAGCGCCAACCUUCUCAACUAUGACACGCAGAACACGUGAUCCGUUGUAUGGAGUUUAUCAUG [G25U A49C C51U U53A C85G G100C A120G G124A C129A A137U] — lower, ≤ -4.2
- GGAUCUUCUCGAUCUAACAAAAAAUACAAAUCUGCCACAAAGCUUGAGCGCAUCUUCGGAUGCAGAGGCGGCAGCCUUCGGUGGGGCGAUAGCGCCGACGUUCUCAACUAUGACACGCAAAACGCGUGCUCCGUUGAAUGGAGUUUAUCAUG [G25U A49C C85G A97G] — lower, ≤ -4.2
- GGAUCUUCUCGAUCUAACAAAAAAUACAAAUCUGCCACAAAGCUUGAGCGCAUCUUCGGAUGCAGAGGCGGCAGCCUUCGGUGGCGCUAUAGCGCCGACGUUCUCAACUAUGACACGCAAAACGCGUGCUCCGUUGAAUGGAGUUUAUCAUG [G25U A49C G88U A97G] — lower, ≤ -4.2
- GGAUCUUCUCGAUCUAACAAAAAAUACAAAUCUGCCACAAAGCUUGAGGGCUUCUUCGGAUGCAGAGGCGGCAGCCUUCGGUGGCGCGAGAGCGCCAACGUUCUCAACUAUGACACGCAAAACGGGUGCUCCGUUGAAUGGUCUUUAUCAUG [G25U A49G A52U U90G C125G A142U G143C] — lower, ≤ -4.2
- GGAUCUUCUCGAUCUAACAAAAAAUACAAAUCUGCCACAAAGCUUGAGGGCAUCUCCGGAUGCAGAGGCGGCAGCCUUCGGUAGCGGGAUAGCGCCAACGUUCUCAACUAUGACACGCAAAACGCGUGCUCCGUUAAAUGGAGUUUAUCAUG [G25U A49G U56C G83A C87G G136A] — lower, ≤ -4.2
- GGAUCUUCUCGAUCUAACAAAAAAUACAAAUCUGCCACAAAGCUUGAGUGCAUCUUUGGAUGCUGAGGCGGCAGCCUUCGGUGGCGCGGUAGAGCCAACGUUCUCAACUAUGACACGCAAAACGCGUGCUCCGUUGAAUGGAGUUUAUCAUG [G25U A49U C57U A64U A89G C93A] — lower, ≤ -4.2
- GGAUCUUCUCGAUCUAACAAAAAAUACAAAUCUGCCACAAAGCUUGAGAGCAUCUUCGGAUGCGGAGGCGGCAGCCUUCGGUGGCGCGAUAGCGCCAAUGAUCUCAACUAUGACAGGCAAAACGCGUGCUCCGUUGAAUGGAGUUUAUCAUG [G25U A64G C99U U101A C116G] — lower, ≤ -4.2
- GGAUCUUCUCGAUCUAACAAAAAAUACAAAUAUGCCACAAAGCUUGAGAGCAUCUUCCGAUGCAGAGGCGGCAGCCUUCGGUGGCGCGAUAGCCCCAACGUUCUCAACUAUGACACGCAAAACGCGUGCUCCGUUGAAUGGAGUUUAUCAUG [G25U C32A G58C G94C] — lower, ≤ -4.2
- GGAUCUUCUCGAUCUAACAAAAAAUACAAAUCUGCAACAAACCUUGAGAGCAUCAUCGAAUGCAGAGGCGGCAGGCUUCGGUGGCGCGAUAGCGCUAACGUUCUCAACUAUGACACGCAAAACGCGUGCUCCGUUGAAUGAAGUUUAUCAUG [G25U C36A G42C U55A G59A C75G C96U G141A] — lower, ≤ -4.2
- GGAUCUUCUCGAUCUAACAAAAAAUACAAAUCUGCUACAAAGCUUGAGCGCAUCUUCGGAUGCAGAGGCGGCAGCCUUCGGUGGCGCGAUAGCGCCAACAUUCUCGACUAUGACACGCAAAACGCGUGCUCCGUUGAAUUGAGUUUAUCAUA [G25U C36U A49C G100A A106G G140U G152A] — lower, ≤ -4.2
- GGAUCUUCUCGAUCUAACAAAAAAUACAAAUCUGCCACAAAGAUUGAGAGCAUCUUCCGCUGCAGAGGCGGCAGCCUUCGGUGGCGCGAUGGCGCCAACGUUCUCAACUAUGACACGCAAAACGCGUGCUCCGUUGAAUGGAGUUUAUCAUG [G25U C43A G58C A60C A91G] — lower, ≤ -4.2
